Measured values reported in the supplement of paper PMC9334596.
Several values for one entry are separate records, joined by “and”; a condition that tells them apart may be missing. Equal values may be shown once. Over roughly 5,300 compounds, “PER2::LUC luminescence relative to vehicle control” has its median near 0.96; the highest 2% begin near 1.3. The list shows a part of the results.

Tested on: mPer2Luc MEF
Assay: PER2::LUC luminescence relative to vehicle control (fold of vehicle); higher = higher PER2::LUC reporter signal
Details: 10 µM
Method in brief: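 Mouse embryonic fibroblasts carrying the mPer2Luc reporter were seeded at ~3000 cells per well in 384-well plates, 48 h before compounds from commercial libraries were added at 10 μM. Cells were grown in DMEM with 10% FBS at 37 °C and 5% CO2. Luminescence was read with the ONE-Glo luciferase assay system 24 h and 30 h after treatment, followed by an alamarBlue viability assay. The value is PER2::LUC luminescence as fold of vehicle control.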

Compound	PER2::LUC luminescence (time after treatment 24 h)	PER2::LUC luminescence (time after treatment 30 h)
Cc1cccc(-c2[nH]c(C(C)(C)C)nc2-c2ccc3nccnc3c2)n1	0.697	0.533
CC(C)[C@@H]1CC[C@@H](C)C[C@H]1O	0.98 and 0.904	0.976 and 1.26
CN1CCN(CCCNc2ncc(Cl)c(-c3cc4c(C(=O)NC5CC5)cccc4s3)n2)CC1	0.98	1
COc1ccc(CCN(C)CCc2ccc(OC)c(OC)c2)cc1OC	1.12	1.26
CC[N+](CC)(CC)CC	1.16	1.01
O=c1cc(-c2cc(O)c(O)c(O)c2)oc2cc(O)cc(O)c12	0.957	0.941
C[C@@H](c1ncncc1F)[C@](O)(Cn1cncn1)c1ccc(F)cc1F	1.05	1.19
Cc1c(NC(=O)c2ccc(C(C)(C)C)cc2)cccc1-c1cn(C)c(=O)c(Nc2ccc(C(=O)N3CCOCC3)cc2)n1	0.756	0.914
O=C(O)Cc1ccccc1Nc1c(Cl)cccc1Cl	0.939 and 0.907 and 1.1	1.13 and 1.15
O=C(Nc1cc(Cl)cc(Cl)c1O)c1c(O)c(Cl)cc(Cl)c1Cl	0.983	0.775
COc1cccc(OC)c1-c1ccc(C[C@H](NC(=O)c2c(Cl)cccc2Cl)C(=O)O)cc1	1	1.03
C[C@@H]1CC(=O)NN=C1c1ccc(NN=C(C#N)C#N)cc1	1.08	1.06
N#Cc1cc(-c2ccnc(Nc3ccc(N4CCOCC4)cc3)n2)ccc1OC1CCOCC1	0.507	0.584
C[C@@H]1O[C@@H](Oc2c(-c3ccc(O)c(O)c3)oc3cc(O)cc(O)c3c2=O)[C@H](O)[C@H](O)[C@H]1O	1.09	0.994
CCCCCCCC/C=C\CCCCCCCC(=O)NCc1ccc(O)c(OC)c1	1.01	0.751
N=c1ccn2c(n1)O[C@H]1[C@H](O)[C@@H](CO)O[C@H]12	0.726 and 0.575	0.891 and 0.419
CC(=O)Oc1c(C)cccc1C(=O)O	1.01 and 0.641	0.886 and 0.782
C[N+](C)(C)CCO.[Br-]	1	1.08
CNC(=O)c1ccc2cc([C@@]3(O)CCn4cncc43)ccc2c1	1.06 and 1.12	0.938 and 1.12

Compound	PER2::LUC luminescence (time after treatment 24 h)	PER2::LUC luminescence (time after treatment 30 h)
CC(=O)Oc1cc(C(F)(F)F)ccc1C(=O)O	1.03	1.18
Cc1cncc(CN2CCC(=C3c4ccc(Cl)cc4CCc4cccnc43)CC2)c1	0.855	0.812
CS(=O)(=O)c1ccc([C@@H](O)[C@@H](CO)NC(=O)C(Cl)Cl)cc1	0.601	0.654
Cc1ccn(-c2cc(Cl)ccc2[C@@H](Oc2cc(-c3ccc(C[C@H](N)C(=O)O)cc3)nc(N)n2)C(F)(F)F)n1	0.974	0.92
CC(C)Cc1ccc([C@H](C)C(=O)O)cc1	1.12 and 0.978 and 0.993	0.959 and 1 and 0.971
COc1cc(N(C)CCN(C)C)c(N)cc1Nc1nccc(-c2cn(C)c3ccccc23)n1	0.57	0.54
CNC(=O)c1ccccc1Oc1nc(Nc2cc(OC)c(OC)c(OC)c2)ncc1Br	0.749	0.702
C[C@]12C=CC(=O)C=C1CC[C@@H]1[C@@H]2[C@@H](O)C[C@@]2(C)[C@H]1CC[C@]2(O)C(=O)CO	0.815	1.07
O=c1ncn2nc(Sc3ccc(F)cc3F)ccc2c1-c1c(Cl)cccc1Cl	0.809	0.843
CCOc1cc(NC(C)=O)ccc1C(=O)OC	0.945	0.923
O=C(O)c1cc(=O)c2cccc(O)c2[nH]1	1	0.938
O=c1[nH]cc(F)c(=O)[nH]1	0.774 and 0.807	0.923 and 0.683
Cc1cc(OC(=O)c2c(C)cc(O)cc2O)cc(O)c1C(=O)O	1.01	0.963
CCN(CC)CCOC(=O)C1(c2ccc([N+](=O)[O-])cc2)CCCC1	0.896	0.951
N[C@@H](CCC(=O)O)C(=O)O	1.06	1.08
CCC(=O)O[C@H](CC(=O)O)C[N+](C)(C)C	0.957 and 1.02	0.869 and 1.27
Clc1ccccc1CN1CCc2sccc2C1	0.982 and 0.91	1.01 and 0.829
COC(=O)N1CCN(Cc2cccc(NC(=O)Nc3ccc(C)nc3)c2F)CC1	0.996 and 0.835	1 and 1.06
C[C@H](CCC(=O)NCC(=O)O)[C@H]1CC[C@H]2[C@@H]3CC[C@@H]4C[C@H](O)CC[C@]4(C)[C@H]3C[C@H](O)[C@]12C	0.955	0.954

Compound	PER2::LUC luminescence (time after treatment 24 h)	PER2::LUC luminescence (time after treatment 30 h)
O=C1CCC(c2ccccc2)(C2CCN(Cc3ccc(I)cc3)CC2)C(=O)N1 (configuration not stated)	0.782	0.705
CN(C)CCCN1c2ccccc2CCc2ccc(Cl)cc21	0.389	0.797
CO[C@@]1(NC(=O)C2SC(=C(C(N)=O)C(=O)O)S2)C(=O)N2C(C(=O)O)=C(CSc3nnnn3C)CS[C@@H]21 (some centres not stated)	1.02	0.915
Cc1cc(NC(=O)C2=C(O)c3ccccc3S(=O)(=O)N2C)no1	1.05	1.09
Nc1nccc(-c2c(-c3ccc(F)cc3)ncn2C2CCCCC2)n1	0.789	0.827
c1cc(-c2sc(-c3ccncc3)c(-c3ccncc3)c2-c2ccncc2)ccn1	1.3	1.16
O=C1NC(=O)/C(=C\c2ccc3nccnc3c2)S1	1.2	1.23
Cc1cc(C(C)(C)CC(C)(C)C)ccc1OCCOCC[N+](C)(C)Cc1ccccc1	0.19	0.246
COC(=O)C1=C(C)NC(C)=C(C(=O)OC)C1c1ccccc1[N+](=O)[O-]	0.944	1.02
NC(=O)c1cccc2[nH]c(-c3ccc(C4CCCN4)cc3F)nc12 (configuration not stated)	1.01	1.22
COc1cc2c(cc1O)CC[C@@H]1[C@@H]2CC[C@]2(C)[C@@H](O)CC[C@@H]12	1.02 and 0.523	0.96 and 0.593
CNC(=O)[C@H]1O[C@@H](n2cnc3c(NCc4ccc(N)cc4)ncnc32)[C@H](O)[C@@H]1O	0.987	0.982
CC[C@H](C)[C@@H]([C@@H](CC(=O)N1CCC[C@H]1[C@H](OC)[C@@H](C)C(=O)N[C@@H](Cc1ccccc1)c1nccs1)OC)N(C)C(=O)[C@@H](NC(=O)[C@@H](NC)C(C)C)C(C)C	0.338	0.385
O=c1c(O)c(-c2ccccc2)oc2ccccc12	1.08	1.05
C=CCc1cc(OC)c(O)c(C(=O)NCCO)c1	1	1.04
CO[C@@]1(NC(=O)C(C(=O)O)c2ccc(O)cc2)C(=O)N2C(C(=O)O)=C(CSc3nnnn3C)CO[C@@H]21 (some centres not stated)	0.946	0.923
COc1cc2c(CCNC(C)=O)c[nH]c2cc1O	0.926	0.815
O=C1CC[C@@H](C(=O)O)N1	1.02 and 0.9	0.995 and 0.97
